Test results as given in PubChem BioAssay AID360 (National Center for Advancing Translational Sciences (NCATS), 2006).
Hit rate of the full screen: of about 48,000 compounds, about 550 (1.1%) were called active. Another 4% or so got no clear call; they are omitted. Rule as the data show it: active = potency below about 15 µM; inconclusive = mostly about 16 µM to 33 µM; inactive = weaker than that. Some of the results follow.

Molecular target: Lysosomal acid glucosylceramidase (Homo sapiens) (UniProt P04062)
UniProt P04062, sequence (P04062 whole entry, looked up): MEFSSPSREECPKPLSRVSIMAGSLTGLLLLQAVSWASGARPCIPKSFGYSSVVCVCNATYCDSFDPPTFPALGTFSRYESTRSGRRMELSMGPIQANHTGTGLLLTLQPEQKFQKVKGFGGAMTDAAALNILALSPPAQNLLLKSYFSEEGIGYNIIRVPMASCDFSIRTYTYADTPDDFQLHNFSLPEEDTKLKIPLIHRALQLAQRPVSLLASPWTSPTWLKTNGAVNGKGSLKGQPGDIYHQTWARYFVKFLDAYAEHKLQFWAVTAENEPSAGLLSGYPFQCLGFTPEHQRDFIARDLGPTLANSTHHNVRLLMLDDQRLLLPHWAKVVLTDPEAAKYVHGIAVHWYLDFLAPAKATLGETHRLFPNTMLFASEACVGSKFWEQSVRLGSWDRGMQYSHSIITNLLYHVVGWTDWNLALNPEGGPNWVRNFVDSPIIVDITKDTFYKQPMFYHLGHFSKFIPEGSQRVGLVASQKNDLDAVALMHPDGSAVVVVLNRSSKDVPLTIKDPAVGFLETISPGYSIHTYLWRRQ
Assay: Glucocerebrosidase;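 also: the screen sought inhibitors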
Details: purified enzyme, resorufin glucoside fluorescence (screen aimed at inhibitors), 20 min
Summary of the method: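 Compounds titrated against 0.2 nM normal enzyme, 30 uM resorufin beta-D-glucopyranoside substrate, citrate/phosphate buffer with taurocholate and tween-20, pH 5.9. Reaction ran 20 min at room temperature; fluorescence (Ex 548/Em 600) gave AC50.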
Potency is read from the fitted curve at half-maximal effect.

Potency, inactive:
COc1ccc(OC)c(S(=O)(=O)Nc2ccccc2SC)c1 > 76.9 µM
CCC(Sc1nc2cc3c(cc2c(=O)n1Cc1ccco1)OCO3)C(=O)Nc1ccccc1OC (stereo not drawn) > 76.9 µM
O=S(=O)(Nc1cccc2ccccc12)N1CCCC1 > 76.9 µM
COc1ccccc1N1CCN(c2nc(N)c(C#N)c(CC#N)c2C#N)CC1 > 76.9 µM
O=C(Nc1ccc2c(c1)CCC2)C1CCCN(c2ncccn2)C1 (stereo not drawn) > 76.9 µM
Cc1oc(CC(C)C)c(CN2CCCC2)c1C(=O)O > 76.9 µM
Cc1nn(S(=O)(=O)N(C)C)c(C)c1CN1C(=O)c2ccccc2C1=O > 76.9 µM
O=C1c2cccnc2C(O)N1Cc1ccc(F)cc1 (stereo not drawn) > 76.9 µM
Cc1ccc(S(=O)(=O)N2CCC(C(=O)N3CCC[C@H]3C(=O)NCc3ccccc3)CC2)cc1 > 76.9 µM
COc1cc(OC)c(C(=O)Nc2ccc(N(C)C)cc2)cc1OC > 76.9 µM
Cc1ccccc1-n1c(=O)c2ccccc2n2nnnc12 > 76.9 µM
O=C(CSc1nnc(-c2ccccc2Cl)n1Cc1ccco1)Nc1ccc2c(c1)OCCO2 > 76.9 µM
Cc1ccc(S(=O)(=O)NCC(=O)OC2CCOC2=O)cc1 (stereo not drawn) > 76.9 µM
CCn1c(SCC(=O)n2nc(C)cc2C)nnc1-c1ccc2c(c1)OCO2 > 76.9 µM
CCOC(=O)Cn1c(CN(C)Cc2ccccc2)nc2c1c(=O)n(C)c(=O)n2C > 76.9 µM
COc1ccc(-n2c(SCC(=O)NCC3CCCO3)nc3n[nH]c(C)c3c2=N)cc1 (stereo not drawn) > 76.9 µM
CC(C)c1nc(=S)c2ccccc2[nH]1 > 76.9 µM
Nn1c(SCC(=O)Nc2ccc(F)c(F)c2)nnc1C1CCCCC1 > 76.9 µM
Cc1ccccc1Cn1c(CN2CCc3ccccc3C2)nc2c1c(=O)n(C)c(=O)n2C > 76.9 µM
Cc1ccc(NC(=O)c2cc(N(C)C)ccc2[P+](=O)O)cc1 > 76.9 µM
Cn1c(=O)c2c(nc(Sc3n[nH]c(N)n3)n2Cc2ccccc2Cl)n(C)c1=O > 76.9 µM
COc1ccc(C2(C(=O)Nc3c(C)n(C)n(-c4ccccc4)c3=O)CCCC2)cc1OC > 76.9 µM
Cc1ccc2nc(-c3ccccc3Cl)cc(C(=O)Nc3cc(C)on3)c2c1 > 76.9 µM
COc1ccc(C(C#N)N2CCCCC2)cc1OC (stereo not drawn) > 76.9 µM
CCn1c(=N)c(C(=O)OC)cc2c(=O)n3ccccc3nc21 > 76.9 µM
COC(=O)c1ccc(Oc2nc(NC(C)C)nc(N(C)C)n2)cc1 > 76.9 µM
O=C(CCc1ccccc1)Nc1nc2n(n1)C(c1ccc(Cl)cc1)CC(=O)N2 (stereo not drawn) > 76.9 µM
O=C(NC1CCCCC1)C(c1ccco1)N(Cc1ccco1)C(=O)c1ccco1 (stereo not drawn) > 76.9 µM
O=C(Cn1nc(C(F)(F)F)c2c1CCCC2)NCCN1CCOCC1 > 76.9 µM
COc1cccc(C2CC(c3ccccc3)Nc3ncnn32)c1 (stereo not drawn) > 76.9 µM
CCn1c(=N)c(C(=O)NC)cc2c(=O)n3cccc(C)c3nc21 > 76.9 µM
CC(C)(C)c1cc(NC(=O)COC(=O)C2CC2)n(-c2ccccc2)n1 > 76.9 µM
O=C(C1CC1)N1CCc2cc(Br)cc(S(=O)(=O)NCc3ccccn3)c21 > 76.9 µM
c1ccc(-n2c(-c3ccco3)nnc2N2CCOCC2)cc1 > 76.9 µM
Cn1c(SC/C=C/c2ccccc2)nnc1-c1cnccn1 > 76.9 µM
O=C(CSc1nnnn1C1CCCCC1)Nc1cccc(NC(=O)c2ccco2)c1 > 76.9 µM
CCOC(=O)c1oc2ccccc2c1CSc1nnnn1-c1ccc(OC)cc1 > 76.9 µM
O=C1N(CCCN2C(=O)C3(OCCO3)c3ccccc32)c2ccccc2C12OCCO2 > 76.9 µM
Cc1ccccc1Cn1nc(C)c(NC(=O)c2cc3n(n2)C(C(F)F)CC(C(F)F)N3)c1C (stereo not drawn) > 76.9 µM
Nc1nncn1C(=O)CCc1ccccc1 > 76.9 µM
O=c1oc2ccccc2c(O)c1/C=N/c1ccccn1 > 76.9 µM
Fc1ccc2nc3n(c2c1F)CCCCCC3 > 76.9 µM
O=C(Nc1nc(-c2ccccc2)cs1)C1CCCO1 (stereo not drawn) > 76.9 µM
CC(C)N(C(=O)NC(=O)NCC1CCCO1)S(C)(=O)=O (stereo not drawn) > 76.9 µM
CN(C)S(=O)(=O)Nc1ccc(Br)cc1F > 76.9 µM
CCCn1c(NCc2ccco2)nc2ccccc21 > 76.9 µM
CC1(C)CC(=O)C2=C(C1)OC(=O)C2(NC(=O)c1cccs1)C(F)(F)F (stereo not drawn) > 76.9 µM
CCCCCn1c(=NC(C)=O)c(C#N)cc2c(=O)n3ccccc3nc21 > 76.9 µM
O=S(=O)(c1ccccc1)c1nc(-c2ccco2)oc1N1CCCCCC1 > 76.9 µM
COc1cccc(NC(=O)c2ccccc2SC)c1 > 76.9 µM
COc1cccc(C(=O)N(Cc2ccco2)Cc2cc3cccc(C)c3[nH]c2=O)c1 > 76.9 µM
CCCCc1ccc(C(=O)NC(C(=O)O)C(C)C)cc1 (stereo not drawn) > 76.9 µM
CCOC(=O)c1sc(N)c(C#N)c1COC(=O)CNC(=O)c1ccccc1 > 76.9 µM
COC(=O)CSc1nnc(-c2ccco2)o1 > 76.9 µM
CC(=O)N(Cc1cc2cc(C)c(C)cc2n2nnnc12)CC1COCCO1 (stereo not drawn) > 76.9 µM
CCCCCOC(=O)c1cc(=O)[nH]c2ccccc12 > 76.9 µM
CC(=O)COc1ccc2c3c(c(=O)oc2c1)CCCC3 > 76.9 µM
Cc1ccc(CCNC(=O)C2CCC(=O)N2C2CCCC2)cc1 (stereo not drawn) > 76.9 µM
